{
  "source": "the supplement of paper PMC10600219",
  "note": "Structures can show the parent of a compound that is named as a salt. In all, about 2,800 compounds were measured (“cell viability relative to vehicle”: median about 1.1, lowest 2% from about 0.19 on). The list shows a part of the results.",
  "data": [
    {"test_system": "NCI-H2228 parental", "experiment": "cell viability relative to vehicle (fraction of vehicle); NCI-H2228 is an ALK-positive lung cancer line and DTP means drug-tolerant persister; higher = less growth inhibition", "settings": "100 nM; treatment time 6 days", "in_short": "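Values give cell viability as a fraction of vehicle-treated cells. Parental and drug-tolerant persister NCI-H2228 cells (persisters made with 1000 nM of a targeted drug for 13 days) were exposed in 384-well plates to the 3114-agent TargetMol anti-cancer compound library at 100 nM, with DMSO as vehicle. ATP was then read after 6 days by the CellTiter-Glo 3D Cell Viability Assay.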", "values": [
      {"molecule": "CS(=O)(=O)c1cccc(CNc2nc(Nc3ccc4c(c3)CCC(=O)N4)ncc2C(F)(F)F)c1", "cell viability": 0.984},
      {"molecule": "NCC1CCC(C(=O)O)CC1", "note": "(stereo not drawn) [Amstat]", "cell viability": 1.24},
      {"molecule": "CC1(C)CCC(CN2CCN(c3ccc(C(=O)NS(=O)(=O)c4ccc(NCC5CCOCC5)c([N+](=O)[O-])c4)c(Oc4cnc5[nH]ccc5c4)c3)CC2)=C(c2ccc(Cl)cc2)C1", "cell viability": 1.2},
      {"molecule": "COc1cc(OCc2cccc(-c3ccccc3)c2C)cc(OC)c1CN1CCCC[C@H]1C(=O)O", "note": "[PD-1/PD-L1 inhibitor 1]", "cell viability": 1.09},
      {"molecule": "Cn1c(=O)c2c(ncn2CC(=O)O)n(C)c1=O", "note": "[Theophylline-7-acetic acid]", "cell viability": 0.863},
      {"molecule": "CC(C)=CCC/C(C)=C/CC/C(C)=C/CC/C(C)=C/CC1=C(C)C(=O)c2ccccc2C1=O", "note": "[Menatetrenone]", "cell viability": 1.01},
      {"molecule": "COc1cc2ncnc(Nc3ccc(O)cc3)c2cc1OC", "cell viability": 1.02},
      {"molecule": "c1cc(Nc2cc(C3CC3)[nH]n2)nc(Nc2ccc3nc[nH]c3c2)n1", "cell viability": 1.02},
      {"molecule": "CCOC(=O)[C@H](CCc1ccccc1)N[C@@H](C)C(=O)N1CCC[C@H]1C(=O)O", "note": "[Enalapril Maleate]", "cell viability": 1},
      {"molecule": "CNC(=O)[C@H](Cc1ccccc1)NC(=O)[C@H](CC(C)C)[C@H](CSc1cccs1)C(=O)NO", "note": "[Batimastat]", "cell viability": 1.08},
      {"molecule": "C[C@]12CC[C@@H]3c4ccc(O)cc4CC[C@H]3[C@@H]1C[C@@H](O)[C@@H]2O", "note": "[Estriol]", "cell viability": 1.12},
      {"molecule": "Cc1nc(N)sc1-c1ccnc(Nc2ccc(N3CCOCC3)cc2)n1", "cell viability": 0.988},
      {"molecule": "Cc1noc(NS(=O)(=O)c2ccc(N)cc2)c1C", "note": "[Sulfisoxazole]", "cell viability": 1.18},
      {"molecule": "CCc1cccc2c3c([nH]c12)C(CC)(CC(=O)O)OCC3", "note": "(stereo not drawn) [Etodolac]", "cell viability": 1},
      {"molecule": "O=C1CC(c2c[nH]c3ccc(F)cc23)C(=O)N1", "note": "(stereo not drawn)", "cell viability": 1.05},
      {"molecule": "O=C(/C=C/c1ccc(O)cc1)C1=C(O)C(O)([C@@H]2O[C@H](CO)[C@@H](O)[C@H](O)[C@H]2O)C(O)=C([C@@H]2O[C@H](CO)[C@@H](O)[C@H](O)[C@H]2O)C1=O", "note": "(stereo partly drawn) [Hydroxysafflor yellow A]", "cell viability": 1.07},
      {"molecule": "C[C@@H]1CN(CC(=O)Nc2ccc3c(c2)Cc2cccc(-c4cc(=O)cc(N5CCOCC5)o4)c2S3)C[C@H](C)O1", "cell viability": 1.05},
      {"molecule": "O=C(O)c1ccccc1C(=O)Nc1ccc(-c2ccccc2)cc1", "note": "[Kartogenin]", "cell viability": 1.02},
      {"molecule": "O=C1N=C(N2CCOCC2)CN1c1ccc(Cl)cc1", "cell viability": 0.808},
      {"molecule": "C=CC(=O)N1CCC[C@@H](n2nc(-c3ccc(Oc4ccccc4)cc3)c3c(N)ncnc32)C1", "note": "[Ibrutinib]", "cell viability": 1.05},
      {"molecule": "C=CC(=O)Nc1ccc2ncnc(Nc3ccc(OCc4cccc(F)c4)c(Cl)c3)c2c1", "cell viability": 1.09},
      {"molecule": "CC1=C(CC(=O)O)c2cc(F)ccc2/C1=C\\c1ccc([S+](C)[O-])cc1", "note": "(stereo not drawn) [Sulindac]", "cell viability": 1.14},
      {"molecule": "COc1c(OCCCN2CCOCC2)ccc2c1N=C(NC(=O)c1cnc(N)nc1)N1CCN=C21", "note": "[Copanlisib]", "cell viability": 0.649},
      {"molecule": "O=C(Nc1ccc(C(O)(C(F)(F)F)C(F)(F)F)cc1)c1ccccc1Cl", "cell viability": 1.06},
      {"molecule": "C/C(=N\\NC(=O)c1cccc(S(=O)(=O)N2CCOCC2)c1)c1cc(Cl)ccc1O", "cell viability": 1.01},
      {"molecule": "O=C(NS(=O)(=O)c1ccc(Br)s1)c1ccc(Cl)cc1Cl", "note": "[Tasisulam]", "cell viability": 1.01},
      {"molecule": "COc1ccc(CNC(=O)Nc2ncc([N+](=O)[O-])s2)cc1", "cell viability": 0.792},
      {"molecule": "O=C(O)c1ccc2c3c1cccc3c(=O)n1c3ccccc3nc21", "note": "[STO-609 acetate]", "cell viability": 1},
      {"molecule": "OCCOCCN1CCN(C(c2ccccc2)c2ccc(Cl)cc2)CC1", "note": "(stereo not drawn) [Hydroxyzine Pamoate]", "cell viability": 1.12},
      {"molecule": "OCCOCCN1CCN(C(c2ccccc2)c2ccc(Cl)cc2)CC1", "note": "(stereo not drawn) [Hydroxyzine dihydrochloride]", "cell viability": 1.04},
      {"molecule": "C=CC1=C(C(=O)O)N2C(=O)[C@@H](NC(=O)/C(=N\\OCC(=O)O)c3csc(N)n3)[C@H]2SC1", "note": "[Cefixime]", "cell viability": 1.18},
      {"molecule": "NC(=S)N/N=C/c1ncccc1N", "note": "[Triapine]", "cell viability": 1.23},
      {"molecule": "Nc1cccc2c1CN(C1CCC(=O)NC1=O)C2=O", "note": "(stereo not drawn) [Lenalidomide]", "cell viability": 1.09},
      {"molecule": "CC(=O)Nc1ccc(O)cc1", "note": "[Acetaminophen]", "cell viability": 1.15},
      {"molecule": "CCCCCCCCOC(=O)c1cc(O)c(O)c(O)c1", "note": "[Octyl gallate]", "cell viability": 1.03},
      {"molecule": "COc1ccc(-c2cc(=O)c3c(O)cc(O[C@@H]4O[C@H](CO[C@@H]5O[C@@H](C)[C@H](O)[C@@H](O)[C@H]5O)[C@@H](O)[C@H](O)[C@H]4O)cc3o2)cc1", "note": "[Linarin]", "cell viability": 1.02},
      {"molecule": "CC(Nc1nc(N2CCCC2)nc2ccccc12)c1ccccc1", "note": "(stereo not drawn) [Importazole]", "cell viability": 1.2},
      {"molecule": "O=S(=O)(O)CCCS(=O)(=O)O", "note": "[Eprodisate disodium]", "cell viability": 1.04},
      {"molecule": "CCS(=O)(=O)Nc1ccc2c(c1)/C(=C(/Nc1ccc(CN3CCCCC3)cc1)c1ccccc1)C(=O)N2", "note": "[Hesperadin]", "cell viability": 0.254},
      {"molecule": "O=C(Nc1ccc(-c2ccnc(Nc3ccc(N4CCOCC4)cc3)n2)cc1)C1CCCN1", "note": "(stereo not drawn)", "cell viability": 1.06},
      {"molecule": "COc1ccc2[nH]c([S+]([O-])Cc3ncc(C)c(OC)c3C)nc2c1", "note": "(stereo not drawn) [Omeprazole]", "cell viability": 1.09},
      {"molecule": "COc1ccc(-c2ccccc2)cc1NS(=O)(=O)c1cc(Cl)cc(Cl)c1O", "cell viability": 1.01},
      {"molecule": "O=C1/C(=C2\\Nc3ccccc3C2=O)Nc2ccccc21", "note": "[Indigo]", "cell viability": 1.07},
      {"molecule": "C[C@H]1O[C@@H](O[C@H]2CC[C@@]3(C)[C@@H](CC[C@]4(C)[C@@H]3C=C[C@]35OC[C@@]6(CCC(C)(C)C[C@H]63)[C@H](O)C[C@]54C)[C@]2(C)CO)[C@H](O)[C@@H](O[C@@H]2O[C@H](CO)[C@@H](O)[C@H](O)[C@H]2O)[C@H]1O", "note": "[Saikosaponin D]", "cell viability": 1.07},
      {"molecule": "N=C(N)N/N=C/c1c(Cl)cccc1Cl", "note": "[Guanabenz Acetate]", "cell viability": 0.974},
      {"molecule": "Brc1c(NC2=NCCN2)ccc2nccnc12", "note": "[Brimonidine Tartrate]", "cell viability": 0.904},
      {"molecule": "CN(C)CCOC(=O)COc1ccc(Cl)cc1", "note": "[Meclofenoxate hydrochloride]", "cell viability": 1.24},
      {"molecule": "Nc1cc(-c2ccncc2)c[nH]c1=O", "note": "[Amrinone]", "cell viability": 1.17},
      {"molecule": "CS(=O)(=O)Nc1ccc([N+](=O)[O-])cc1OC1CCCCC1", "cell viability": 1.11},
      {"molecule": "Cc1ccc(NS(=O)(=O)c2cccc(C#N)c2)c2[nH]cc(C#N)c12", "cell viability": 0.488},
      {"molecule": "COC(=O)C(N)CS", "note": "[L-Cysteine methyl ester hydrochloride(Acdrile)]", "cell viability": 1.28},
      {"molecule": "C[C@@H]1CC[C@@]2(OC1)O[C@H]1C[C@H]3[C@@H]4CC=C5C[C@@H](O)C[C@@H](O)[C@]5(C)[C@H]4CC[C@]3(C)[C@H]1[C@@H]2C", "note": "[Ruscogenin]", "cell viability": 1.02},
      {"molecule": "COc1cc(OC)cc(C(=O)Nc2ccc(Cl)c(-c3nc4ccc(N(C)C)cc4[nH]3)c2)c1", "note": "[HhAntag]", "cell viability": 1.03},
      {"molecule": "O=C(NCC(=O)N1CCCC1)Nc1ccc2cnccc2c1", "cell viability": 1.13},
      {"molecule": "CN(C)CC[C@@H](c1ccc(Cl)cc1)c1ccccn1", "note": "[Dexchlorpheniramine Maleate]", "cell viability": 0.85},
      {"molecule": "CN(CCOc1ccc(CC2SC(=O)NC2=O)cc1)c1ccccn1", "note": "(stereo not drawn) [Rosiglitazone maleate]", "cell viability": 1.06},
      {"molecule": "CN(CCOc1ccc(CC2SC(=O)NC2=O)cc1)c1ccccn1", "note": "(stereo not drawn) [Rosiglitazone]", "cell viability": 0.998},
      {"molecule": "CCN(c1cc(-c2ccc(CN3CCOCC3)cc2)cc(C(=O)NCc2c(C)cc(C)[nH]c2=O)c1C)C1CCOCC1", "cell viability": 1.29},
      {"molecule": "NC(N)=O", "cell viability": 1.15},
      {"molecule": "O=C(O)CC1CC(c2ccccc2)=NO1", "note": "(stereo not drawn)", "cell viability": 1.03},
      {"molecule": "COc1ccc(-c2cc(C(F)F)nn2-c2ccc(S(N)(=O)=O)cc2)cc1F", "note": "[Deracoxib]", "cell viability": 1.16},
      {"molecule": "S=C(N/N=C1/CCCc2cccnc21)N1CCN(c2ccccn2)CC1", "cell viability": 1.09},
      {"molecule": "C[C@@H]1O[C@@H](Oc2cc(O)c3c(=O)c(O[C@@H]4O[C@@H](C)[C@H](O)[C@@H](O)[C@H]4O)c(-c4ccc(O)cc4)oc3c2)[C@H](O)[C@H](O)[C@H]1O", "note": "[Kaempferitrin]", "cell viability": 1.08},
      {"molecule": "Cc1cc(Nc2nc(N[C@@H](C)c3ncc(F)cn3)ncc2Cl)[nH]n1", "cell viability": 0.569},
      {"molecule": "C=CC(=O)Nc1cc(Nc2nccc(-n3cc(CN(C)C)c(-c4ccccc4)n3)n2)c(OC)cc1N1CCOCC1", "note": "[Lazertinib]", "cell viability": 0.976},
      {"molecule": "CCCCC(=O)N(Cc1ccc(-c2ccccc2-c2nnn[nH]2)cc1)[C@H](C(=O)O)C(C)C.CCOC(=O)[C@H](C)C[C@@H](Cc1ccc(-c2ccccc2)cc1)NC(=O)CCC(=O)O", "cell viability": 1.13},
      {"molecule": "COC[C@H](NC(=O)c1cnc(C)s1)C(=O)N[C@@H](COC)C(=O)N[C@@H](Cc1ccccc1)C(=O)[C@@]1(C)CO1", "note": "[Oprozomib]", "cell viability": 0.176},
      {"molecule": "COc1ccc(C(=O)NCc2ccc(OCCN(C)C)cc2)cc1OC", "note": "[Itopride hydrochloride]", "cell viability": 0.995},
      {"molecule": "N[C@@H](C(=O)N[C@@H]1C(=O)N2C(C(=O)O)=C(Cl)CS[C@H]12)c1ccccc1", "note": "[Cefaclor monohydrate]", "cell viability": 1.34},
      {"molecule": "N#Cc1c(-c2ccccc2)cc(-c2cc(Br)ccc2O)[nH]c1=O", "cell viability": 1.02},
      {"molecule": "C=C1C(=O)O[C@@H]2C[C@@]3(C)CCC[C@H](C)C3=C[C@H]12", "note": "[Helenine]", "cell viability": 1.06},
      {"molecule": "O=C(Nc1ccccc1C(=O)Nc1ccc(CCO)cc1)c1ccc([N+](=O)[O-])cc1", "cell viability": 1.12},
      {"molecule": "Cc1cnc(CNC(=O)c2c(=O)c3ccc(N4CCCN(C)CC4)nc3n3c2sc2ccccc23)cn1", "cell viability": 0.233},
      {"molecule": "CN(C)Cc1cccc(N/C(=C2\\C(=O)Nc3cc(C(N)=O)ccc32)c2ccccc2)c1", "cell viability": 1.15},
      {"molecule": "Cn1nccc1Nc1nccc(-c2ccn([C@H](CO)c3ccc(Cl)c(F)c3)c(=O)c2)n1", "note": "[Ravoxertinib]", "cell viability": 1},
      {"molecule": "N=C(N)NCCC[C@H](N)C(=O)O", "note": "[L-arginine monohydrochloride]", "cell viability": 1.03},
      {"molecule": "CNCCC(Oc1ccc(C(F)(F)F)cc1)c1ccccc1", "note": "(stereo not drawn) [Fluoxetine]", "cell viability": 1.16},
      {"molecule": "C[C@@H](CN1CC(=O)NC(=O)C1)N1CC(=O)NC(=O)C1", "note": "[Dexrazoxane HCl]", "cell viability": 0.873}
    ]}
  ]
}
